This passage reports binding signal (RPM ratio (pull-down/input)) results from PMC12820563.

The list shows a part of the results. The list includes weakly bound sequences.

The experiment concerns the target T1, MBP-FoxP3dN (UniProt Q99JB6).
T1 sequence: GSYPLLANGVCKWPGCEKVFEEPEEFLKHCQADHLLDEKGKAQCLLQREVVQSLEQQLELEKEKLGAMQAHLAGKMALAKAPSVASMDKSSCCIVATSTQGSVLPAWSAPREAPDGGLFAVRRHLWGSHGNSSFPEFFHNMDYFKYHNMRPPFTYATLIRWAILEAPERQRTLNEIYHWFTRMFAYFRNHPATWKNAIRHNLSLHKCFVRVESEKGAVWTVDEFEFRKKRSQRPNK
Kind of experiment: PD-seq (MBP pull-down with sequencing). To be noted: 20 mM Tris-HCl pH 7.5, 100 mM NaCl, 1.5 mM MgCl2, 0.4 uM protein, 0.1 uM dsDNA library, 30 min, room temperature, amylose pull-down; high values mean tight binding; double strand, one strand shown.
With “GATGATTGTTCTCCCAGCTGATGAATTTCCCCTTTCGAGTAAACAAATTTTCCTAATCTTTCTGTTCAAGCGCCATCTAC”, the binding signal (RPM ratio (pull-down/input)) stood at 0.24.
Next, “GATGATTGTTCTCCCAGCTGATGAATTTAGCTGGTCGAGTAAACAAATTTTCCTAATCTTTCTGTTCAAGCGCCATCTAC”: 0.756; “GATGATTGTTCTCCCAGCTGATGAATTTCCTTTGTCGAGTAAACAAATTTTCCTAATCTTTCTGTTCAAGCGCCATCTAC”: 0.434; “GATGATTGTTCTCCCAGCTGATGAATTCATGCGGTCGAGTAAACAAATTTTCCTAATCTTTCTGTTCAAGCGCCATCTAC”: 0.626.
Under “GATGATTGTTCTCCCAGCTGATGAATTACAAACTTCGAGTAAACAAATTTTCCTAATCTTTCTGTTCAAGCGCCATCTAC” stands 0.7; under “GATGATTGTTCTCCCAGCTGATGAATTTGGCTATTCGAGTAAACAAATTTTCCTAATCTTTCTGTTCAAGCGCCATCTAC”, 2.06.
Next, “GATGATTGTTCTCCCAGCTGATGAATTGGGATTTTCGAGTAAACAAATTTTCCTAATCTTTCTGTTCAAGCGCCATCTAC”: 0.534.
On to “GATGATTGTTCTCCCAGCTGATGAATTTAGATGTTCGAGTAAACAAATTTTCCTAATCTTTCTGTTCAAGCGCCATCTAC”, for which the binding signal (RPM ratio (pull-down/input)) was 1.78.
With “GATGATTGTTCTCCCAGCTGATGAATTTGCTTCATCGAGTAAACAAATTTTCCTAATCTTTCTGTTCAAGCGCCATCTAC”, the binding signal (RPM ratio (pull-down/input)) was determined as 1.37.
As for “GATGATTGTTCTCCCAGCTGATGAATTCCAGGCGTCGAGTAAACAAATTTTCCTAATCTTTCTGTTCAAGCGCCATCTAC”, the binding signal (RPM ratio (pull-down/input)) was determined as 0.436.
On to “GATGATTGTTCTCCCAGCTGATGAATTGTCGGGTTCGAGTAAACAAATTTTCCTAATCTTTCTGTTCAAGCGCCATCTAC”, for which the binding signal (RPM ratio (pull-down/input)) was found to be 0.372.
For “GATGATTGTTCTCCCAGCTGATGAATTTGTGCTGTCGAGTAAACAAATTTTCCTAATCTTTCTGTTCAAGCGCCATCTAC”, the binding signal (RPM ratio (pull-down/input)) was 2.88.
Next, “GATGATTGTTCTCCCAGCTGATGAATTTTCGATGTCGAGTAAACAAATTTTCCTAATCTTTCTGTTCAAGCGCCATCTAC”: 0.404.
Next, “GATGATTGTTCTCCCAGCTGATGAATTTGCCCCCTCGAGTAAACAAATTTTCCTAATCTTTCTGTTCAAGCGCCATCTAC”: 0.571; “GATGATTGTTCTCCCAGCTGATGAATTTAGCAGGTCGAGTAAACAAATTTTCCTAATCTTTCTGTTCAAGCGCCATCTAC”: 0.708.
Next, “GATGATTGTTCTCCCAGCTGATGAATTTGCCCTATCGAGTAAACAAATTTTCCTAATCTTTCTGTTCAAGCGCCATCTAC”: 0.491; “GATGATTGTTCTCCCAGCTGATGAATTGAGCAGTTCGAGTAAACAAATTTTCCTAATCTTTCTGTTCAAGCGCCATCTAC”: 0.808.
Take “GATGATTGTTCTCCCAGCTGATGAATTTAGCGTATCGAGTAAACAAATTTTCCTAATCTTTCTGTTCAAGCGCCATCTAC”: the binding signal (RPM ratio (pull-down/input)) was 1.54.
Turning to “GATGATTGTTCTCCCAGCTGATGAATTATCCCACTCGAGTAAACAAATTTTCCTAATCTTTCTGTTCAAGCGCCATCTAC”, the binding signal (RPM ratio (pull-down/input)) was determined as 0.322.
Turning to “GATGATTGTTCTCCCAGCTGATGAATTCATAAGATCGAGTAAACAAATTTTCCTAATCTTTCTGTTCAAGCGCCATCTAC”, the binding signal (RPM ratio (pull-down/input)) was 0.218.
Regarding “GATGATTGTTCTCCCAGCTGATGAATTCACAGTATCGAGTAAACAAATTTTCCTAATCTTTCTGTTCAAGCGCCATCTAC”, the binding signal (RPM ratio (pull-down/input)) was 0.581.
Next, “GATGATTGTTCTCCCAGCTGATGAATTCCTATTGTCGAGTAAACAAATTTTCCTAATCTTTCTGTTCAAGCGCCATCTAC”: 0.764.
Next, “GATGATTGTTCTCCCAGCTGATGAATTAAGTTTTTCGAGTAAACAAATTTTCCTAATCTTTCTGTTCAAGCGCCATCTAC”: 2.4; “GATGATTGTTCTCCCAGCTGATGAATTTCGTCTATCGAGTAAACAAATTTTCCTAATCTTTCTGTTCAAGCGCCATCTAC”: 0.908; “GATGATTGTTCTCCCAGCTGATGAATTGGGACGCTCGAGTAAACAAATTTTCCTAATCTTTCTGTTCAAGCGCCATCTAC”: 0.447.
For “GATGATTGTTCTCCCAGCTGATGAATTACGATAGTCGAGTAAACAAATTTTCCTAATCTTTCTGTTCAAGCGCCATCTAC”, the binding signal (RPM ratio (pull-down/input)) worked out at 0.683.
As for “GATGATTGTTCTCCCAGCTGATGAATTAAGAACATCGAGTAAACAAATTTTCCTAATCTTTCTGTTCAAGCGCCATCTAC”, the binding signal (RPM ratio (pull-down/input)) was 0.337.
Next, “GATGATTGTTCTCCCAGCTGATGAATTGACTGTATCGAGTAAACAAATTTTCCTAATCTTTCTGTTCAAGCGCCATCTAC”: 0.645; “GATGATTGTTCTCCCAGCTGATGAATTTCGCTAGTCGAGTAAACAAATTTTCCTAATCTTTCTGTTCAAGCGCCATCTAC”: 1.24; “GATGATTGTTCTCCCAGCTGATGAATTTTCACACTCGAGTAAACAAATTTTCCTAATCTTTCTGTTCAAGCGCCATCTAC”: 0.309.
“GATGATTGTTCTCCCAGCTGATGAATTCAGTTGATCGAGTAAACAAATTTTCCTAATCTTTCTGTTCAAGCGCCATCTAC”: the binding signal (RPM ratio (pull-down/input)) is 2.08.
Take “GATGATTGTTCTCCCAGCTGATGAATTCTGGAGGTCGAGTAAACAAATTTTCCTAATCTTTCTGTTCAAGCGCCATCTAC”: the binding signal (RPM ratio (pull-down/input)) is 0.216.
